Whole data set: some 18,000 sequences, median “TetR repression strength (sort-seq, GFP reporter)” near 0.23, cut for the highest 2% near 0.68. Some of the results follow.

Sequence of UniProt P04483 (P04483 whole entry): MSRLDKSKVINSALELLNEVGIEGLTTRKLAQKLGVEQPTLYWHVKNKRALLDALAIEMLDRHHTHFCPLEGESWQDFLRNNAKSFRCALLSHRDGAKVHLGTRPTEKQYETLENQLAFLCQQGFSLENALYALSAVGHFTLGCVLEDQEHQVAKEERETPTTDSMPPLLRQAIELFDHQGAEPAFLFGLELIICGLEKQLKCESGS

For this experiment, the target named is TetR (class B, Tn10) (UniProt P04483). Kind of experiment: TetR repression strength (sort-seq, GFP reporter) (relative to tetO2 = 1); higher = stronger repression. Particulars: E. coli. The method in brief:
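Repression strength is the top bin index plus one minus the read-weighted mean bin, relative to the unaltered operator's value. A low-copy library in E. coli SIG10-MAX randomized eight operator positions between a constitutive promoter and sfGFP, with TetR expressed constitutively; cells grew 5 h at 37 °C in LB with 50 µg/mL chloramphenicol and 10^6 were FACS-sorted into 13 bins that were each Illumina-sequenced. Three independent transformations were averaged, keeping only members with ≥30 reads in all replicates and CV ≤0.5.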
The sequence TCCCTTCTAGTCTGCGAGA showed a TetR repression strength of 0.577.

TCCCTGGGAGTGACTGAGA registered a TetR repression strength of 0.286.

In turn, TCCCTAAGAGTTTACGAGA yielded a TetR repression strength of 0.0764.

The sequence TCCCTATGAGTCGCGGAGA showed a TetR repression strength of 0.432.

TCCCTTTCAGTCCATGAGA displayed a TetR repression strength of 0.41.

As to TCCCGGATAGTTCCTGAGA, the TetR repression strength came out at 0.208.

In turn, TCCCCTCTAGTTTTGGAGA registered a TetR repression strength of 0.41.

Consider TCCCTCTCAGTGTTAGAGA, for which the TetR repression strength stood at 0.465.

TCCCCTTAAGTGACTGAGA yielded a TetR repression strength of 0.343.

Sequence TCCCTGATAGTGTATGAGA displayed a TetR repression strength of 0.21.

TCCCCCATAGTCCGAGAGA yielded a TetR repression strength of 0.427.

In turn, TCCCCACGAGTCCTTGAGA showed a TetR repression strength of 0.459.

With TCCCGATAAGTGGAAGAGA, the TetR repression strength came out at 0.327.

The sequence TCCCTCGCAGTGAGGGAGA showed a TetR repression strength of 0.579.

In turn, TCCCATGGAGTGTTAGAGA registered a TetR repression strength of 0.246.

TCCCACGTAGTGGTGGAGA came in with a TetR repression strength of 0.158.

Regarding TCCCACAGAGTAATGGAGA, the TetR repression strength came out at 0.108.

Take TCCCATTGAGTCCCGGAGA: the TetR repression strength stood at 0.0115.

In turn, TCCCCTTGAGTAGTAGAGA came in with a TetR repression strength of 0.196.

Consider TCCCTGGTAGTTTCAGAGA, for which the TetR repression strength was found to be 0.213.

The sequence TCCCTGGCAGTAATGGAGA had a TetR repression strength of 0.404.

For TCCCGCGGAGTCCTTGAGA, the TetR repression strength is 0.26.

TCCCTCGGAGTCGTAGAGA showed a TetR repression strength of 0.287.

In turn, TCCCACAGAGTCAGGGAGA registered a TetR repression strength of 0.271.

In the case of TCCCCGCGAGTAGTAGAGA, the TetR repression strength was 0.314.

TCCCGGTGAGTAGAGGAGA: the TetR repression strength was found to be 0.407.

TCCCCATAAGTTACGGAGA: the TetR repression strength was 0.131.

TCCCGGAGAGTTATCGAGA registered a TetR repression strength of 0.316.

For TCCCGAAAAGTGACGGAGA, the TetR repression strength stood at 0.109.

TCCCGTTAAGTGTGAGAGA returned a TetR repression strength of 0.179.

Turning to TCCCGGTAAGTCCCTGAGA, the TetR repression strength was determined as 0.413.

The sequence TCCCCTTGAGTGGACGAGA returned a TetR repression strength of 0.325.

Turning to TCCCCGGTAGTACCCGAGA, the TetR repression strength came to 0.0846.

Sequence TCCCTGGGAGTAGTAGAGA displayed a TetR repression strength of 0.26.

For TCCCGGGTAGTACACGAGA, the TetR repression strength was found to be 0.445.

TCCCTCAAAGTGTTGGAGA showed a TetR repression strength of 0.237.

With TCCCCGACAGTTGGAGAGA, the TetR repression strength was found to be 0.223.

TCCCGTGGAGTCGTAGAGA had a TetR repression strength of 0.23.

For the sequence TCCCGTGAAGTACGGGAGA, the TetR repression strength worked out at 0.43.

Consider TCCCGTTGAGTGATAGAGA, for which the TetR repression strength was 0.558.

Take TCCCGCAGAGTTAATGAGA: the TetR repression strength turned out to be 0.239.

Regarding TCCCGGGCAGTAAGAGAGA, the TetR repression strength was 0.22.

Regarding TCCCGCGAAGTGTAAGAGA, the TetR repression strength came to 0.138.

Consider TCCCTGTAAGTATGCGAGA, for which the TetR repression strength stood at 0.0714.

In turn, TCCCATTTAGTTGGTGAGA gave a TetR repression strength of 0.251.

TCCCAGGTAGTAACAGAGA came in with a TetR repression strength of 0.376.

TCCCGGGTAGTTGACGAGA registered a TetR repression strength of 0.0605.

In turn, TCCCATAAAGTTCTCGAGA returned a TetR repression strength of 0.361.

Sequence TCCCCTAGAGTAGACGAGA had a TetR repression strength of 0.238.

As for TCCCTGCAAGTATGGGAGA, the TetR repression strength was 0.328.

Sequence TCCCGATGAGTGGTGGAGA gave a TetR repression strength of 0.133.

The sequence TCCCTACGAGTTGTGGAGA gave a TetR repression strength of 0.0924.

The sequence TCCCACTCAGTGTTGGAGA registered a TetR repression strength of 0.0488.

The sequence TCCCCAGGAGTTACCGAGA returned a TetR repression strength of 0.0401.

For the sequence TCCCTTCTAGTTTATGAGA, the TetR repression strength is 0.524.

Sequence TCCCATGCAGTGAGTGAGA gave a TetR repression strength of 0.0957.

In turn, TCCCGAACAGTCGAGGAGA returned a TetR repression strength of 0.185.

For the sequence TCCCTATTAGTTTGTGAGA, the TetR repression strength was determined as 0.264.

TCCCGGTAAGTGGAAGAGA returned a TetR repression strength of 0.376.

Sequence TCCCGCGAAGTATATGAGA registered a TetR repression strength of 0.357.

TCCCCATTAGTCGCAGAGA registered a TetR repression strength of 0.366.

Turning to TCCCGTGAAGTATAGGAGA, the TetR repression strength came out at 0.142.

Take TCCCGGGAAGTCGACGAGA: the TetR repression strength amounted to 0.0734.

Turning to TCCCGAAGAGTTATTGAGA, the TetR repression strength came out at 0.259.

With TCCCCATTAGTCTCCGAGA, the TetR repression strength was found to be 0.513.

With TCCCATTTAGTAGGTGAGA, the TetR repression strength stood at 0.107.

In turn, TCCCGCTAAGTTATCGAGA registered a TetR repression strength of 0.0361.

The sequence TCCCTTATAGTGGCAGAGA yielded a TetR repression strength of 0.0985.

For TCCCAGATAGTTTGAGAGA, the TetR repression strength was 0.28.

In the case of TCCCTCACAGTCTCCGAGA, the TetR repression strength is 0.355.

For TCCCCCGAAGTATTCGAGA, the TetR repression strength was found to be 0.437.

The sequence TCCCGAACAGTTAACGAGA yielded a TetR repression strength of 0.046.

The sequence TCCCGTTGAGTACGTGAGA displayed a TetR repression strength of 0.314.

TCCCAGGTAGTTGGTGAGA yielded a TetR repression strength of 0.168.

For the sequence TCCCTTTGAGTGTAAGAGA, the TetR repression strength is 0.198.

In the case of TCCCTTTGAGTTCTAGAGA, the TetR repression strength was found to be 0.123.

Consider TCCCCTTTAGTTAGAGAGA, for which the TetR repression strength was determined as 0.175.

For the sequence TCCCAGTGAGTGAGGGAGA, the TetR repression strength came out at 0.138.

As for TCCCATTGAGTATATGAGA, the TetR repression strength turned out to be 0.292.

The sequence TCCCTTCGAGTGGAAGAGA gave a TetR repression strength of 0.264.

TCCCTGCAAGTTGGGGAGA registered a TetR repression strength of 0.181.

With TCCCGTAAAGTGATAGAGA, the TetR repression strength was determined as 0.438.

TCCCCCGGAGTCGGTGAGA: the TetR repression strength was 0.0852.

Sequence TCCCACAAAGTCCTCGAGA displayed a TetR repression strength of 0.402.

TCCCTTAGAGTAGGCGAGA returned a TetR repression strength of 0.0259.

As for TCCCAGCGAGTAGAAGAGA, the TetR repression strength is 0.334.

TCCCGCGGAGTGCTGGAGA: the TetR repression strength is 0.201.

In the case of TCCCTTTAAGTTCTCGAGA, the TetR repression strength amounted to 0.271.

As to TCCCAACCAGTTGTAGAGA, the TetR repression strength is 0.229.

The sequence TCCCGGTGAGTATCAGAGA returned a TetR repression strength of 0.188.

As for TCCCGACCAGTCGGTGAGA, the TetR repression strength is 0.154.

Regarding TCCCGAGCAGTACCCGAGA, the TetR repression strength came to 0.14.

TCCCTCACAGTTCGAGAGA displayed a TetR repression strength of 0.207.

Consider TCCCAACCAGTACGTGAGA, for which the TetR repression strength turned out to be 0.207.

TCCCGGACAGTGATTGAGA showed a TetR repression strength of 0.254.

The sequence TCCCTAAGAGTGTCTGAGA showed a TetR repression strength of 0.267.

In turn, TCCCCATTAGTTGCAGAGA showed a TetR repression strength of 0.273.

As for TCCCGATCAGTTGTCGAGA, the TetR repression strength was 0.279.

In turn, TCCCTGCGAGTAGTGGAGA had a TetR repression strength of 0.274.

Sequence TCCCAGAAAGTGTGAGAGA had a TetR repression strength of 0.472.

TCCCATGAAGTTCGAGAGA displayed a TetR repression strength of 0.193.

In the case of TCCCAGATAGTATGGGAGA, the TetR repression strength was determined as 0.0319.

The values above are taken from a collection of fitness landscapes (doi:10.1038/s41467-024-54723-y).
